PubChem BioAssay AID652104 (National Center for Advancing Translational Sciences (NCATS), 2013)
The campaign covered roughly 410,000 compounds. About 7,200 (1.8%) were called active. This list was built around the results that the source calls inconclusive (neither active nor inactive); the mix of calls is not that of the screen. The call rests on the fitted dose curve; in most records, active means well fitted activation curve with a large enough effect; inconclusive means small, poorly fitted or top-dose-only effect, or another doubt; inactive means no such curve, though single readings can be large or run the other way. No potency is given beside an inconclusive call; the fits are too rough.

Assay: qHTS of TDP-43 Inhibitors; further: nearly all actives have a fitted effect of over 50% in size; on growth rescue (activation): % of control where 0% means no effect
Conditions: TDP-43 expressing yeast growth rescue, BacTiter-Glo, 24 h; growth rescue (activation): at 46.1 µM (top of the series) unless noted
Outline: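 Cell-based yeast growth screen: TDP-43 expression induced in galactose, inoculum OD600=0.02 after raffinose pregrowth to mid-log. Read-out BacTiter-Glo luminescence at 24 hr, 30 deg C; inhibition of toxicity seen as signal increase.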
Potency means the concentration at half of the fitted maximal effect; tags describe the fitted curve by direction and shape.

| Structure (SMILES) | growth rescue (activation) | Potency |
| --- | --- | --- |
| Cc1cccc(NS(=O)(=O)c2ccc(C(C)(C)C)cc2)n1 | inactive: 10.2% |  |
| O=C(NCCc1ccc(OC(F)F)cc1)C1CC(=O)N(c2ccc3c(c2)OCCO3)C1 (configuration not stated) | inactive: -2.74% |  |
| Cc1ccc(N2C(=O)CC(N3CCSCC3)C2=O)c(C)c1 (configuration not stated) |  | inconclusive [activator, partial curve] |
| Cn1c(SCc2cccc(Br)c2)nnc1-c1ccccn1 |  | inconclusive [activator, single point] |
| COc1cc2c(cc1OC)/C(=C/c1ccc(Cl)cc1)C(=O)OC2 |  | active: 22.4 µM |
| O=[N+]([O-])c1cccc(Cl)c1NCCNS(=O)(=O)c1ccccc1 |  | inconclusive [activator, single point] |
| S=c1nc(-c2ccccc2)[nH]c2ccccc12 |  | inconclusive [activator, full curve, poor fit] |
| O=C(/C=C/c1ccc2c(c1)OCO2)N1CCCCC1 |  | inconclusive [activator, partial curve] |
| S=c1[nH]nc(COc2ccccc2)n1/N=C/c1cccc(Cl)c1Cl |  | inconclusive [activator, full curve, poor fit] |
| Cc1nc2ccccc2c(=O)n1NCc1cccs1 |  | inconclusive [activator, single point] |
| Cc1cc(/C(=N/O)C(C)(C)NO)ccc1Cl |  | inconclusive [activator, single point] |
| CC(C)=CC(=O)OCC(=O)Nc1ccc(Cl)cc1 |  | inconclusive [activator, single point] |
| CNc1oc(-c2ccccc2Cl)nc1P(=O)(c1ccccc1)c1ccccc1 |  | inconclusive [activator, single point] |
| Cc1ccc(S(=O)(=O)c2nnn3c2nc(Nc2cccc(C)c2)c2ccccc23)cc1 | inactive: 23.1% |  |
| COc1ccc(N(CCN2C(=O)c3ccccc3C2=O)C(=O)c2cccc([N+](=O)[O-])c2)cc1 |  | active: 11.2 µM |
| CC1=NN(/C(=N\c2nnc(C)s2)Nc2ccc(C(C)(C)C)cc2)[C@H](c2ccc(C)cc2)S1 |  | active: 35.5 µM |
| O=C(N/N=C/C(Br)=C/c1ccccc1)c1ccccc1F |  | active: 14.1 µM |
| CC(=O)NC(=S)Nc1cccc2ccc(C)nc12 |  | inconclusive [activator, partial curve] |
| Clc1cccc(-c2ccc(/C=N/n3cnnc3)o2)c1Cl | inactive: 2.81% |  |
| COC(=O)c1nn(Cc2ccccc2)c(=O)c2ccccc12 |  | inconclusive [activator, partial curve] |
| CC(Sc1nnc(NC2CC2)s1)C(=O)Nc1ccc(N2CCOCC2)cc1 (configuration not stated) |  | inconclusive [activator, partial curve, poor fit] |
| CC(C)(C)c1ccc(C(=O)NNC(=S)NCC2CCCO2)cc1 (configuration not stated) |  | inconclusive [activator, full curve, poor fit] |
| O=[N+]([O-])c1cnccc1-n1nnc2ccccc21 |  | inconclusive [activator, single point] |
| Cc1ccc(Cl)cc1N1CCN(Cc2nc3c(c(=O)[nH]c(=O)n3C)n2Cc2ccccc2F)CC1 |  | active: 11.2 µM |

| Structure (SMILES) | growth rescue (activation) | Potency |
| --- | --- | --- |
| COc1ccc(NC(=O)C2(C)CCCN(C(C)C)C2)cc1F (configuration not stated) |  | inconclusive [activator, partial curve, poor fit] |
| O=C(COc1cccc(Cl)c1Cl)NC1CC1 |  | inconclusive [activator, single point] |
| O=C(O)CN=C(Nc1cc(Cl)cc(Cl)c1)NC(c1ccccc1)c1ccccc1 | inconclusive: 33.2% [activator] |  |
| CCOCCCNC(=O)C1CCCCN1S(=O)(=O)c1ccc(F)cc1 (configuration not stated) |  | inconclusive [activator, full curve, poor fit] |
| CCCc1cc(C(=O)Nc2ccccc2C(=O)OC)no1 |  | inconclusive [activator, full curve] |
| CC(C)(C)c1cc(C(=O)Nc2ccc(F)cc2)n(Cc2ccc(F)cc2)n1 |  | active: 20 µM |
| Cc1ccc2oc(-c3ccc(NC(=O)c4ccc5c(c4)OCO5)cc3)nc2c1 | inactive: 0% |  |
| O=C(CSCc1cccc(Br)c1)N=Nc1c(O)[nH]c2ccccc12 |  | active: 22.4 µM |
| O=C(CCc1nc(-c2cccs2)no1)Nc1cccc([N+](=O)[O-])c1 |  | inconclusive [activator, partial curve] |
| CCOc1cc(CNC(=O)C2COc3ccccc3C2)cc(OCC)c1OCC (configuration not stated) | inactive: 11.4% |  |
| COc1ccc(NC(=S)NC(=O)c2cc3ccccc3o2)c(OC)c1 |  | inconclusive [activator, full curve, poor fit] |
| CCOC(=O)CSc1nc2ccc(C)cc2n2cnnc12 | inactive: 0.643% |  |
| Cc1ccc(S(=O)(=O)Nc2ccc3c(c2)C(=O)c2ccccc2-3)cc1 |  | inconclusive [activator, single point] |
| CCOc1cc(CNc2ccc(O)cc2)ccc1OCc1ccc(Cl)cc1Cl |  | inconclusive [activator, single point] |
| CCc1ccc(-c2csc3[n+]2CCN3C(C)=O)cc1 |  | inconclusive [activator, single point] |
| O=C1CSC(=Nc2ccc(Cl)cc2)N1Cc1ccco1 |  | inconclusive [activator, single point] |
| CCCc1ccc(C(O)c2ncc(-c3cccc(C)c3)[nH]2)cc1 (configuration not stated) |  | inconclusive [activator, full curve, poor fit] |
| CCN(CC)CCNC(=O)c1ccc(NC(=O)c2cccc(S(=O)(=O)N(C)C3CCCCC3)c2)cc1 | inactive: 10.5% |  |
| CN(Cc1c(F)cccc1Cl)C(=O)CCc1c[nH]c2ccccc12 |  | inconclusive [activator, single point] |
| Cc1cc(Nc2ccc3c(c2)OCCO3)c2cc(Cl)ccc2n1 |  | inconclusive [activator, partial curve] |
| N#Cc1ccc(-c2c(-c3ccccc3)ncc3cc(F)ccc23)cc1 |  | active: 15.8 µM |
| Clc1ccc(-c2csc(N/N=C/c3ccco3)n2)cc1 |  | active: 6.31 µM |
| Cc1ccc(-n2c(C)cc3c2CC(C)(C)CC3=O)cc1C |  | inconclusive [activator, single point] |
| CC1CC(=O)Nc2ccccc2N1C(=O)CSc1ncnc2sccc12 (configuration not stated) | inactive: 26.9% |  |

| Structure (SMILES) | growth rescue (activation) | Potency |
| --- | --- | --- |
| Cc1c(C(c2ccc(F)cc2)c2c(C)n(C)n(-c3ccccc3)c2=O)c(=O)n(-c2ccccc2)n1C | inactive: 2.11% |  |
| COc1ccc2c(c1)Cc1sc(NC(=O)c3cccs3)nc1-2 |  | inconclusive [activator, single point] |
| COC(=O)CNc1nc(C2CC2)nc2c1nnn2Cc1ccccc1Cl | inactive: -20.5% |  |
| CCCCCCn1c(C(C)NC(=O)c2ccco2)nc2ccccc21 (configuration not stated) |  | inconclusive [activator, single point] |
| COc1cc(-c2cc(OC)c3c(C)oc(C)c3c(=O)c2)ccc1OC(=O)c1ccccc1Cl | inactive: 13% |  |
| COc1ccc(OC)c2sc(N3CCN(C(=O)C(C)(C)C)CC3)nc12 |  | active: 22.4 µM |
| C[C@@H]1CN([C@@H](C)CO)C(=O)c2cc(Br)cnc2O[C@H]1CN(C)C(=O)c1ccncc1 |  | inconclusive [activator, single point] |
| CCc1nc(SCc2cc(Cl)ccc2OC)n[nH]1 |  | inconclusive [activator, single point] |
| CCc1ccccc1NC(=O)c1c(NC(=O)c2ccccc2)sc2c1CCCC2 |  | inconclusive [activator, partial curve] |
| O=C(CC[C@H]1O[C@@H](n2ccc(=O)[nH]c2=O)[C@H](O)[C@@H]1O)NCCc1c[nH]c2ccccc12 | inactive: 22.7% |  |
| Cc1cccc(NC(=O)CN(CC2CCCO2)C(=O)c2ccc(S(C)(=O)=O)cc2)c1C (configuration not stated) | inactive: 15.3% |  |
| COc1ccc(CCn2cc3c(c2-c2ccc(Br)cc2)c(=O)n(C)c(=O)n3C)cc1OC | inactive: 2.32% |  |
| Cc1ccccc1N1CC(c2nc3ccccc3n2CCC2CCCCC2)CC1=O (configuration not stated) |  | active: 22.4 µM |
| O=C(Nc1cccnc1)c1ccc(-c2cc(Cl)ccc2Cl)o1 |  | inconclusive [activator, partial curve] |
| O=C(NCCc1ccccc1Cl)c1ccc(Cn2c(=O)c3cccn3c3cccnc32)cc1 |  | inconclusive [activator, partial curve] |
| CCOc1cc(CNC(=O)c2sc3ncnc(N(C)C4CCCCC4)c3c2C)ccc1OC | inactive: 0% |  |
| Nc1nc(N)nc(-c2cccc([N+](=O)[O-])c2)n1 | inactive: 11.1% |  |
| CC(=O)OC1C=CCC2C(=O)c3cccc(O)c3C(O)C12 (configuration not stated) |  | inconclusive [activator, partial curve] |
| Cc1cccc(N(C)c2cc(C)nc3ncnn23)c1 |  | inconclusive [activator, partial curve] |
| COc1ccc(OCc2cc(=O)c3ccc4c(c3o2)C=CC(C)(C)O4)cc1OC |  | active: 35.5 µM |
| O=C(Nc1ccc(Oc2ncccn2)cc1)c1ccco1 |  | inconclusive [activator, partial curve] |
| O=S(=O)(Nc1cc(S(=O)(=O)N2CCOCC2)ccc1Cl)c1ccccc1 |  | inconclusive [activator, partial curve] |
| CCCc1cc(-n2cnc3ccccc32)n2c(nc3ccccc32)c1C#N |  | inconclusive [activator, partial curve, poor fit] |
| O=S(=O)(Nc1c(S(=O)(=O)c2ccccc2)c2nc3ccccc3nc2n1C1CCCCC1)c1ccccc1 | inactive: 4.73% |  |
